Measured values reported in PubChem BioAssay AID1347120 (National Center for Advancing Translational Sciences (NCATS), 2019).
Several values for one entry are separate records, joined by “and”; a condition that tells them apart may be missing. Equal entries are not always repeated. In all, about 390,000 compounds went through this assay and about 930 (0.24%) were called active. The shares of active, inactive and inconclusive entries below differ from those in the screen. Calls follow the shape of the dose curve; as a rule, active = well fitted activation curve with a large enough effect; inconclusive = small, poorly fitted or top-dose-only effect; inactive = no such curve, though single readings can be large or run the other way. Potencies of inconclusive entries are doubtful fits and often do not repeat.

experiment: qHTS for Suppressors of FUS Proteinopathy: Primary screen using FUS-linked yeast assay; also: nearly all actives have a fitted effect of over 55% in size;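 as to growth rescue (activation): plate controls were DMSO vehicle for no effect and reference control for full effect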; settings: S. cerevisiae FUS-expressing, OD600, 24 h; Potency: growth rescue; growth rescue (activation): at 76.6 µM (top of the series)
Outline: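 FUS-expressing yeast, raffinose-pregrown, induced in 2% galactose minimal medium at OD 0.005; compounds in a dilution series, 24hr at 30C. Growth restoration read as absorbance at 600 nm. CP55940 positive control, DMSO negative.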
Potency is read from the fitted curve at half-maximal effect; tags tell the direction and shape of the fitted curve.

| SMILES | growth rescue (activation) | Potency |
| --- | --- | --- |
| CCN(C(=O)CSc1n[nH]c(N)n1)C1CCCCC1 | inconclusive: -46.3% [activator] |  |
| N#Cc1c(-c2ccccc2)nc(N2CCCCCC2)[nH]c1=O | inactive: 23.1% |  |
| O=C1[C@H]2[C@@H](c3ccccc3)N[C@]3(CCCN(Cc4ccccc4)C3=O)[C@H]2C(=O)N1Cc1ccccc1 |  | inconclusive: 35.5 µM [activator, partial curve, poor fit] |
| CC(C)Cn1c(-c2cccs2)nc2nc3ccccc3nc21 | inactive: 8.46% |  |
| O=C(NNC(=O)c1ccco1)c1ccccc1 | inactive: -4.3% |  |
| O=C(NCCc1ccc(Cl)cc1)c1ccc(CS(=O)(=O)c2ccc(Cl)cc2)o1 |  | inconclusive: 50.1 µM [activator, single point] |
| O=C1C=C(Nc2cccc3cccnc23)c2ccccc2C1=O |  | inconclusive: 44.7 µM [activator, single point] |
| COC(=O)Oc1ccc(/C=C/C(=O)OC(C)C)cc1OC(=O)OC | inactive: -2.4% |  |
| Cc1ccc(C(=O)n2ccc3ccc(-c4ccc5ccn(Cc6ccc(C#N)cc6)c5c4)cc32)cc1 |  | inconclusive: 50.1 µM [activator, single point] |
| O=C(Nc1cccc(NC(=O)c2cccc(Cl)c2)c1)c1cccnc1 | inactive: -4.48% |  |
| CCCS(=O)(=O)c1c(S(=O)(=O)CCC)c2cc(C(C)(C)C)ccn2c1C(=O)c1ccccc1 |  | active: 17.8 µM |
| Cc1c(C(=O)Nc2ccccc2)sc2nc(-c3cc4cc(Cl)ccc4oc3=O)[nH]c(=O)c12 | inactive: -19.9% |  |
| CCc1ccccc1OCC(=O)Nc1nc(-c2cccnc2)cs1 | inactive: 27.5% |  |
| COc1ccc(C2C(C(C)=O)=C(O)C(=O)N2CCc2c[nH]c3ccccc23)cc1OC (centres undefined) |  | inconclusive: 31.6 µM [activator, partial curve, poor fit] |
| CC(=O)Oc1ccc(C(=O)[C@H]2[C@H]3C(=O)N(c4ccc5ccccc5c4)C(=O)[C@H]3[C@@H]3C=CC=NN32)cc1 |  | inconclusive: 14.1 µM [activator, partial curve] |
| CC(=O)Nc1cccc(-c2csc(Nc3ccc(Cl)cn3)n2)c1 | inactive: 7.51% |  |
| COc1ccccc1CNC(=O)c1ccc(CS(=O)Cc2cccc(Cl)c2)o1 (centres undefined) |  | inconclusive: 31.6 µM [activator, single point] |
| COCCCn1c(C(=O)NC2CCCCC2C)cc2c(=O)n3cccc(C)c3nc21 (centres undefined) | inactive: -15.4% |  |
| Cc1nc(NC(=O)CSc2nnc(-c3ccccc3)c(-c3ccccc3)n2)c(Cl)cc1Cl |  | inconclusive: 39.8 µM [activator, partial curve, poor fit] |
| CC(C)C[C@@]12C(=O)N(c3cccc(F)c3)C(=O)N1[C@H](c1ccc(F)cc1)[C@@H]1C(=O)N(C3CCCCC3)C(=O)[C@@H]12 |  | inconclusive: 14.1 µM [activator, partial curve, poor fit] |
| COc1ccc(NC(=S)N/N=C2\CC(C)(C)Oc3ccc(O)cc32)cc1 | inactive: 39.4% |  |
| Cc1ccc(-c2ccc(=O)n(CCC(=O)NCCc3ccccc3)n2)cc1 | inactive: 10.4% |  |

| SMILES | growth rescue (activation) | Potency |
| --- | --- | --- |
| CCOC(=O)c1[nH]c(C)c(CCC(=O)NCc2ccc(CC)cc2)c1C | inactive: -2.62% |  |
| CCn1c2c(c(=O)n3ncc(C(=O)N4CCN(c5ccc(Cl)cc5)CC4)c13)CN(Cc1ccc(OC)cc1)CC2 |  | inconclusive: 35.5 µM [activator, single point] |
| Cc1ccc(C(=O)CSc2nnc(CNc3ccc(C)cc3C)n2Cc2ccco2)cc1 |  | inconclusive: 39.8 µM [activator, partial curve, poor fit] |
| COC(=O)c1cc2oc3ccccc3c2n1Cc1ccc(Cl)cc1 | inactive: -15% |  |
| COc1ccc(-c2nc3scc(CCNS(=O)(=O)c4ccc(F)cc4C)n3n2)cc1 | inactive: 30% |  |
| COc1ccc(Cl)cc1NC(=O)C1CCCN(c2ncnc3c2nc2n3CCCCC2)C1 (centres undefined) | inactive: -21% |  |
| Cc1cccc(C)c1NC(=O)CNC(=O)CCCN1C(=O)c2cccc3cccc(c23)C1=O |  | inconclusive: 31.6 µM [activator, single point] |
| COc1ccc(-c2ccc3[nH]c4c(c3c2)CCN2C(=O)[C@@H]([C@H](C)O)[C@@H](N(C)C(=O)Nc3ccc(F)cc3)C[C@@H]42)cc1 |  | inconclusive: 50.1 µM [activator, single point] |
| CCOc1ccc(N2CC(C(=O)Nc3ccc(S(=O)(=O)N4CCCCC4)cc3)CC2=O)cc1 (centres undefined) | inactive: 25.9% |  |
| COC(=O)C1=C(CSc2nncn2C)NC(=O)NC1c1cc(C)ccc1C (centres undefined) |  | inconclusive: 15.8 µM [activator, partial curve] |
| COc1ccc(NC(=O)Cn2c(=O)n(Cc3ccccc3)c(=O)c3sc4ccccc4c32)cc1 | inactive: 1.06% |  |
| O=C(Nc1ccc(F)c(Cl)c1)c1cc(C2CCCCN2C(=O)CCc2ccccc2)on1 (centres undefined) |  | inconclusive: 17.8 µM [activator, partial curve, poor fit] |
| CCOC(=O)C1CCCN(C(=O)c2cc(S(=O)(=O)Nc3ccccc3OC)ccc2C)C1 (centres undefined) |  | inconclusive: 50.1 µM [activator, single point] |
| COC(=O)c1sc(N2C(=O)C(O)=C(C(=O)c3ccc(C)o3)C2c2ccc(OC)c(OC)c2)nc1C (centres undefined) |  | inconclusive: 22.4 µM [activator, partial curve] |
| O=C(Oc1ccccc1F)c1nc(SCc2ccc(F)cc2)ncc1Cl | inactive: -17.4% |  |
| CCOc1ccc(Nc2c(S(=O)(=O)c3ccccc3)cnc3ccc(F)cc23)cc1 |  | inconclusive: 39.8 µM [activator, single point] |
| COc1ccc(C(=O)Nc2cccc(/C=C(\CCC(=O)O)c3nc4ccccc4s3)c2)cc1 |  | inconclusive: 3.16 µM [activator, partial curve, poor fit] |
| CCn1c(=O)n2n(c1=O)[C@]1(C=C(C)C2)CN(Cc2ccc(OC)cc2OC)C(NC(=O)c2ccccc2)=N1 |  | inconclusive: 7.94 µM [activator, partial curve, poor fit] |
| CCOc1ccc(-c2c(C)nn3c(C)c(C(=O)Nc4cc(C)cc(C)c4)cnc23)cc1OCC | inactive: 16% |  |
| Cc1noc(/C=C/c2ccccn2)c1[N+](=O)[O-] | inconclusive: -91.3% [activator] |  |
| COc1cc2[nH]c(=O)n(CCC(=O)N3CCc4ccccc4C3)c(=O)c2cc1OC | inactive: -1.61% |  |
| O=Cc1cnc(N2CCCCC2)s1 | inactive: -8.67% |  |

| SMILES | growth rescue (activation) | Potency |
| --- | --- | --- |
| Cc1cc(N2CCN(C(=O)c3cccs3)CC2)c(F)cc1[N+](=O)[O-] | inactive: 26.9% |  |
| Cc1cc(C)c2c(c1)c(C)cc1nnc(SCc3ccccc3C#N)n12 | inactive: 15.6% |  |
| Cc1cccc(N2CCN(S(=O)(=O)c3ccc4c(c3)NC(=O)CS4)CC2)c1C |  | inconclusive: 15.8 µM [activator, partial curve] |
| COc1ccc(OC)c(NC(=O)CN2C(=O)C(=O)N(Cc3ccccc3)C2=O)c1 |  | inconclusive: 50.1 µM [activator, single point] |
| Cc1ccc(C)c(-c2ccc(=O)n(Cc3c(F)cccc3Cl)n2)c1 |  | inconclusive: 44.7 µM [activator, single point] |
| O=C(Oc1ccc(C(=S)N2CCOCC2)cc1Br)c1cc(Cl)ccc1Cl |  | inconclusive: 50.1 µM [activator, single point] |
| CCOC(=O)C1CCN(C(=O)CNC(=O)c2nn(-c3ccc(OC)c(Cl)c3)c(=O)c3ccccc23)CC1 |  | inconclusive: 22.4 µM [activator, partial curve, poor fit] |
| CC(=O)N1CCc2c(sc3c2c(=O)n(CCc2ccccc2)c(=O)n3Cc2ccccc2C)C1 |  | inconclusive: 15.8 µM [activator, partial curve, poor fit] |
| C/C(=C\C(=O)c1ccc(F)cc1)Nc1ccc(N2CCOCC2)cc1 |  | inconclusive: 31.6 µM [activator, single point] |
| COc1ccc(-c2cn(-c3ccc(C)cc3)c(=O)n2CC(=O)Nc2ccc(OC)c(OC)c2)cc1 |  | inconclusive: 28.2 µM [activator, partial curve, poor fit] |
| Cc1cccc(C)c1NC(=O)CS(=O)(=O)c1nc(-c2ccc(Cl)cc2)cn1-c1ccccc1 |  | inconclusive: 35.5 µM [activator, single point] |
| Cc1cccn2c(=O)c3cc(C#N)c(=O)n(-c4nnc(SCc5ccc(Cl)cc5)s4)c3nc12 | inactive: 34% |  |
| CC1(C(=O)Nc2cccc3c2CCCC3)CCN1C(=O)C1(c2ccccc2)CC1 (centres undefined) |  | inconclusive: 22.4 µM [activator, partial curve] |
| O=C1C=C(c2ccc3[nH]ccc3c2)C[C@@H](c2ccc(F)cc2)C1 | inactive: 37.6% |  |
| Cc1cc(/C=N/N2CCN(C)CC2)c(C)n1-c1ccc(Cl)cc1 |  | inconclusive: 25.1 µM [activator, partial curve, poor fit] |
| CCOc1ccc(NCc2nc3ccccc3n2CCOc2ccc(C)cc2)cc1 |  | inconclusive: 28.2 µM [activator, single point] |
| CC(=O)N1CCCc2cc(S(=O)(=O)N3CCCC(C(=O)NCc4ccc(C)cc4)C3)ccc21 (centres undefined) |  | inconclusive: 28.2 µM [activator, partial curve, poor fit] and inconclusive: 15.8 µM [activator, partial curve] |
| O=C(CSc1nnc(-c2cccnc2)n1-c1ccc(Cl)cc1)Nc1ccccc1-c1ccccc1 |  | inconclusive: 14.1 µM [activator, partial curve, poor fit] |
| CCOc1ccc(C(C)=O)cc1COC(=O)CCc1cc(OC)c(OC)c(OC)c1 |  | inconclusive: 28.2 µM [activator, partial curve, poor fit] |
| CC(=O)c1cccc(NC(=O)C2Cc3c(-c4ccccc4Oc4ccccc4)ccnc3O2)c1 (centres undefined) |  | inconclusive: 15.8 µM [activator, partial curve, poor fit] |
